Experimental data from US20020106724A1 (RIKEN, published 2002).

Biological target: T1, SYNCRIP (Synaptotagmin-binding, cytoplasmic RNA-interacting protein), full-length (mouse, UniProt Q7TMK9 1-549)
T1 construct: Tested as crude lysates, not purified; also called 66 kDa protein; wild type
T1 sequence: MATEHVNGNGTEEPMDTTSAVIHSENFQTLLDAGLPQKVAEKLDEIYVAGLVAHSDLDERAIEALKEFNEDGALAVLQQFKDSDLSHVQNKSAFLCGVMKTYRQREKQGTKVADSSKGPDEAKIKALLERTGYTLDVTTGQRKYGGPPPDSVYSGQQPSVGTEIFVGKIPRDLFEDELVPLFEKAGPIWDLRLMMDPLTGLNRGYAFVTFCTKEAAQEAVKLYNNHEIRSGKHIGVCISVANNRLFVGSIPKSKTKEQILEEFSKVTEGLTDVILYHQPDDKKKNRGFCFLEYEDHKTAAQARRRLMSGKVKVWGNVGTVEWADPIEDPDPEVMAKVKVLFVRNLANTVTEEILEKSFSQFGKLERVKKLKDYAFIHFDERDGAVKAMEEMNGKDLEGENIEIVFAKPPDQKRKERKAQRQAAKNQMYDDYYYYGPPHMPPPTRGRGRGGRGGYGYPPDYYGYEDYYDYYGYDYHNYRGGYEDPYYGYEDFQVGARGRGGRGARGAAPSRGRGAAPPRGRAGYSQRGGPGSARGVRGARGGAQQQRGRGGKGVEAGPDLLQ
Assay: GST pull-down from mouse whole brain detergent extract, Western blot with anti-SYNCRIP-N antibody

B1: GST alone (other)
chain: not shown
notes: Control protein in the pull-downs; also called purified GST; glutathione-S-transferase
B1: no binding (tested: 25 µg of purified GST alone).
